# Results reported in US20210147571A1, “MONOCLONAL ANTIBODY TARGETING HUMAN TUMOR STEM CELLS AND USE THEREOF” (Suzhou Bojuhua Biomedical Technology Co. Ltd, priority 2017, published 2021).
# B1: Hetuzumab H5L6: humanized antibody, heavy chain SEQ ID NO:36 and light chain SEQ ID NO:42 (antibody)
# heavy: QVTLKESGPTLVKPTQTLTLTCTFSGFSLSTSGMGVSWIRQPPGKALEWLAHIYWDDDKRYNPSLKSRLTISKDTSKNQVVLTMTNMDPVDTATYYCARSFYYYAANSFAYWGQGTLVTVSS[human IgG1 constant region left out here]
# light: DIVMTQTPFSNPVTLGTSASISCRSSKSLLHSNGITYLYWFLQKPGQSPQLLIYQMSNLASGVPDRFSGSGSGTDFTLKISRVEAEDVGVYYCAQNLELYTFGQGTKVEIKRTVAAPSVFIFPPSDEQLKSGTASVVCLLNNFYPREAKVQWKVDNALQSGNSQESVTEQDSKDSTYSLSSTLTLSKADYEKHKVYACEVTHQGLSSPVTKSFNRGEC
# modifications: Humanized heavy chain H5; Humanized light chain L6
# Tests used:
# BGC-823 sphere cells = assay: sphere-forming inhibition (self-renewal); format: cell-based, human; conditions: Table 33
# Method: (§1) The main manifestation of the self-renewal ability of tumor stem cells is the ability to form spheres in serum-free medium, which is called asymmetric division, that is, when one cell divides into two daughter cells, one of the daughter cells maintains the same features as the parental cell, while the other daughter cell may continue to divide, forming normal daughter cells. […] And then Hetumomab (250 μg/mL) was used as the experimental group, and the PBS was used as a negative control group to incubate with the cells at 37° C. for 2 h, during which the cells were mixed with the antibody or the negative control once every half an hour. 500 cells in each group were inoculated into a semi-solid sphere medium (containing EGF, LIF, bFGF, etc.) containing 0.8% methylcellulose, and cultured in an ultra-low adhesion 24-well plate. 1-1.5 mL liquid medium was added every other day, and the number of spheres formed from the two groups was observed after 14 days.
# Bel7402-V13 sphere cells = assay: sphere-forming inhibition (self-renewal); format: cell-based, human; conditions: Table 33
# Method: as §1
# MHCC-97L sphere cells = assay: sphere-forming inhibition (self-renewal); format: cell-based, human; conditions: Table 33
# Method: as §1
# SNU-5 sphere cells = assay: sphere-forming inhibition (self-renewal); format: cell-based, human; conditions: Table 33
# Method: as §1
# MHCC97L cells = assay: flow immunofluorescence, positive cells in parental and sphere cells; format: binding, human; conditions: MHCC-97L, Table 32
# Method: (§2) The human liver cancer cell line Bel7402-V13 and MHCC97L cells were cultured for 5 days in a serum-free manner, and the Hetumomab^+ cells in the parental cells and in the cells from sphere culture were detected by viable cell flow fluorescence cytometry. […] That is, after serum-free culture, Hetumomab^+ cells of the liver cancer cell line were enriched.
# (§3) As described above, four cell lines, SNU-5, BGC-823, MHCC-97L, and BEL7402 V13, were used to harvest both parental cells and tumor-stem-cell-rich sphere cells. […] The results are as follows:
# (§4) According to the aforementioned method, four cell lines, SNU-5, BGC-823, MHCC-97L, and BEL7402 V13, were used to harvest both parental cells and tumor-stem-cell-rich sphere cells. […]
# Bel7402-V13 cells = assay: as above; format: binding, human; conditions: BEL7402 V13, Table 32
# Method: as §2, §3, §4
# [1] = system: Hetumomab target antigen in liver, lung, gastric cancer tissue sections; assay: immunohistochemistry of antigen-positive and negative tissue sections; format: binding, human; conditions: Example 11
# SNU-5 cells = assay: flow immunofluorescence, positive cells in parental and sphere cells; format: binding, human; conditions: SNU-5, Table 32
# Method: as §2, with “gastric” for “liver”, “SNU-5” for “Bel7402-V13”, “BGC-823” for “MHCC97L”, “after the” for “after”
# as §3, §4
# BGC-823 cells = assay: as above; format: binding, human; conditions: BGC-823, Table 32
# Method: as §2, with “gastric” for “liver”, “SNU-5” for “Bel7402-V13”, “BGC-823” for “MHCC97L”, “after the” for “after”
# as §3, §4
# [2] = BEL7402 V13, antibody 160 ug/ml
molecule,measurement,setting,value
B1,Average number of formed spheres,"BGC-823 sphere cells; BGC-823, antibody 20 ug/ml",197
same,Inhibition Rate (%),"BGC-823 sphere cells; BGC-823, antibody 20 ug/ml",22.1%
same,Average number of formed spheres,"BGC-823 sphere cells; BGC-823, antibody 40 ug/ml",185
same,Inhibition Rate (%),"BGC-823 sphere cells; BGC-823, antibody 40 ug/ml",26.8%
same,Average number of formed spheres,"BGC-823 sphere cells; BGC-823, antibody 80 ug/ml",160
same,Inhibition Rate (%),"BGC-823 sphere cells; BGC-823, antibody 80 ug/ml",36.8%
same,Average number of formed spheres,"BGC-823 sphere cells; BGC-823, antibody 160 ug/ml",132
same,Inhibition Rate (%),"BGC-823 sphere cells; BGC-823, antibody 160 ug/ml",47.8%
same,Average number of formed spheres,"Bel7402-V13 sphere cells; BEL7402 V13, antibody 10 ug/ml",201
same,Inhibition Rate (%),"Bel7402-V13 sphere cells; BEL7402 V13, antibody 10 ug/ml",12.6%
same,Average number of formed spheres,"Bel7402-V13 sphere cells; BEL7402 V13, antibody 20 ug/ml",189
same,Inhibition Rate (%),"Bel7402-V13 sphere cells; BEL7402 V13, antibody 20 ug/ml",17.8%
same,Average number of formed spheres,"Bel7402-V13 sphere cells; BEL7402 V13, antibody 40 ug/ml",156
same,Inhibition Rate (%),"Bel7402-V13 sphere cells; BEL7402 V13, antibody 40 ug/ml",32.2%
same,Average number of formed spheres,"Bel7402-V13 sphere cells; BEL7402 V13, antibody 80 ug/ml",121
same,Inhibition Rate (%),"Bel7402-V13 sphere cells; BEL7402 V13, antibody 80 ug/ml",47.8%
same,Average number of formed spheres,Bel7402-V13 sphere cells; [2],109
same,Inhibition Rate (%),Bel7402-V13 sphere cells; [2],52.6%
same,Average number of formed spheres,MHCC-97L sphere cells; antibody 10 ug/ml,214
same,Inhibition Rate (%),MHCC-97L sphere cells; antibody 10 ug/ml,11.2%
same,Average number of formed spheres,MHCC-97L sphere cells; antibody 20 ug/ml,186
same,Inhibition Rate (%),MHCC-97L sphere cells; antibody 20 ug/ml,22.8%
same,Average number of formed spheres,MHCC-97L sphere cells; antibody 40 ug/ml,158.5
same,Inhibition Rate (%),MHCC-97L sphere cells; antibody 40 ug/ml,34.2%
same,Average number of formed spheres,MHCC-97L sphere cells; antibody 80 ug/ml,138
same,Inhibition Rate (%),MHCC-97L sphere cells; antibody 80 ug/ml,42.7%
same,Average number of formed spheres,MHCC-97L sphere cells; antibody 160 ug/ml,113
same,Inhibition Rate (%),MHCC-97L sphere cells; antibody 160 ug/ml,53.1%
same,Average number of formed spheres,"SNU-5 sphere cells; SNU-5, antibody 10 ug/ml",216
same,Inhibition Rate (%),"SNU-5 sphere cells; SNU-5, antibody 10 ug/ml",11.8%
same,Average number of formed spheres,"SNU-5 sphere cells; SNU-5, antibody 20 ug/ml",201
same,Inhibition Rate (%),"SNU-5 sphere cells; SNU-5, antibody 20 ug/ml",18.0%
same,Average number of formed spheres,"SNU-5 sphere cells; SNU-5, antibody 40 ug/ml",176
same,Inhibition Rate (%),"SNU-5 sphere cells; SNU-5, antibody 40 ug/ml",28.2%
same,Average number of formed spheres,"SNU-5 sphere cells; SNU-5, antibody 80 ug/ml",151.5
same,Inhibition Rate (%),"SNU-5 sphere cells; SNU-5, antibody 80 ug/ml",38.2%
same,Average number of formed spheres,"SNU-5 sphere cells; SNU-5, antibody 160 ug/ml",124
same,Inhibition Rate (%),"SNU-5 sphere cells; SNU-5, antibody 160 ug/ml",49.4%
same,"positive rate, Parent",MHCC97L cells,7.35%
same,"positive rate, Sphere",MHCC97L cells,16.17%
same,"positive rate, Parent",Bel7402-V13 cells,7.12%
same,"positive rate, Sphere",Bel7402-V13 cells,12.03%
same,staining of negative tissue sections,[1]; 10 negative sections,did not stain
same,staining of target antigen-positive tissue sections,[1]; 10 positive sections,positively stain
same,"positive rate, Parent",SNU-5 cells,3.68%
same,"positive rate, Sphere",SNU-5 cells,6.20%
same,"positive rate, Parent",BGC-823 cells,3.84%
same,"positive rate, Sphere",BGC-823 cells,6.26%
